# Source: publication PMC4336329 (PLoS ONE, 2015)
# Screen size: about 310,000 compounds; about 2,200 (0.71%) showed an effect of 50% or more. Effects have a minus sign here. The list shows a part of the results.
# Target: human ether-à-go-go-related gene (hERG) potassium channel (human, UniProt Q12809)
# Assay: primary screen, population patch clamp on CHO cells stably expressing hERG
# Chain of human ether-à-go-go-related gene (hERG) potassium channel (Q12809 whole entry, looked up): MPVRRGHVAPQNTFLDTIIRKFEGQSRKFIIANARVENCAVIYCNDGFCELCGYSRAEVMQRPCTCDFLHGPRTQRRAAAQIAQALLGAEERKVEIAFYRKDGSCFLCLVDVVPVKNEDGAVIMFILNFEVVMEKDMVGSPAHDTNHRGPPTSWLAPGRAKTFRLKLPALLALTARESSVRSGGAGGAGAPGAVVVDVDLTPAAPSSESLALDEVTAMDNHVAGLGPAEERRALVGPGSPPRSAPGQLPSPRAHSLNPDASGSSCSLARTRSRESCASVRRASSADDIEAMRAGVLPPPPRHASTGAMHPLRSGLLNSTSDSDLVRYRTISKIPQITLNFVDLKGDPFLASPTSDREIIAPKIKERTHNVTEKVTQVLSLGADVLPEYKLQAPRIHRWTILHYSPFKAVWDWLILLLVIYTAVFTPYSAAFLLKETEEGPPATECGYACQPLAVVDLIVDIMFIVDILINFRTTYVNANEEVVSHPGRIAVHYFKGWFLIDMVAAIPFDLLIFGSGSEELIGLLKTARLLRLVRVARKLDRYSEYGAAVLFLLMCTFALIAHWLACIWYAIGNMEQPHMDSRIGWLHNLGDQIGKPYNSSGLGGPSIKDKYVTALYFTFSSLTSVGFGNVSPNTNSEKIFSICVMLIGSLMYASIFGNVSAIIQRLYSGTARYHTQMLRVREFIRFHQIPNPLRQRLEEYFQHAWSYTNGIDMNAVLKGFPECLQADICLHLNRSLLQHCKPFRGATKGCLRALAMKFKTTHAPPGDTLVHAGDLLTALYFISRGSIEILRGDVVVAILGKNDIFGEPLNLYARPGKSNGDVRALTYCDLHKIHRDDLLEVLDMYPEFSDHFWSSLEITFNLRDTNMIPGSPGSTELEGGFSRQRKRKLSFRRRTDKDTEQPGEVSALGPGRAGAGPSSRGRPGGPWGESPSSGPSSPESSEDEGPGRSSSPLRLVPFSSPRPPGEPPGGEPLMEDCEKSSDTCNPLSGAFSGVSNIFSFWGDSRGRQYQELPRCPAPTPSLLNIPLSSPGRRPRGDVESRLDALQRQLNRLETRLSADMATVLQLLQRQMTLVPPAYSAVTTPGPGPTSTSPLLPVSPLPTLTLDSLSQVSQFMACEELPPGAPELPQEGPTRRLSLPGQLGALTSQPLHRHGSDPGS
row,Compound,"hERG current change (%, negative = inhibition) at 1uM"
1,CC(C)Cc1c(O)nc(SCC(=O)Nc2ccc3c(c2)CCC3)[nH]c1=O,8.07%
2,CCn1cc(CCC(=O)NCCN2CCOCC2)c2ccccc21,18.8%
3,CCOc1cc(C=O)ccc1OCc1cc(=O)n2cc(C)ccc2n1,9.17%
4,CCn1c(SCC(=O)c2ccc(O)c(O)c2)nnc1-c1ccccc1,1.18%
5,Cn1c(=O)c2c(nc(CN3CCC(C(N)=O)CC3)n2CCCc2ccccc2)n(C)c1=O,10%
6,CCC(=O)c1ccccc1OCC(=O)Nc1c(C)cccc1C,8.24%
7,CCOc1cc(/C=N/NC(=O)Nc2ccccc2)ccc1O,2.04%
8,CCN(CC)CCOC(=O)c1cccc(OC)c1.Cl,1.64%
9,Cc1cccc(-c2nnc3n2N=C(c2ccccc2)CS3)c1,12.1%
10,O=C(NCc1ccco1)C(c1ccco1)N(CCc1ccccc1)C(=O)Cn1nnc2ccccc21 (stereo not shown),0.882%
11,COc1cccc(/C=C2\SC(=O)N(CCC(=O)NCCCn3ccnc3)C2=O)c1,12.6%
12,NS(=O)(=O)c1ccc(CCNC(=O)COc2ccc3c4c(c(=O)oc3c2)CCC4)cc1,10.5%
13,Cc1nc(CSc2n[nH]c(=O)n2-c2cccc(F)c2)cs1,17.6%
14,COc1ccc(N2CCN(c3ccc(NC(=O)/C=C\C(=O)O)cc3)CC2)cc1,7.83%
15,CC(NC(=O)c1ccccc1F)C12CC3CC(CC(C3)C1)C2 (stereo not shown),12.5%
16,CCc1ccc(C(C(=O)NC2CCCCC2)N(C(=O)c2csnn2)C2CC2)cc1 (stereo not shown),5.76%
17,O=C(Cn1cnc2ccccc21)N/N=C/c1ccccn1,11.6%
18,CCOC(=O)[C@H]1[C@H]2COc3cc(OC)ccc3[C@@H]2N2C(=O)c3ccc(C)cc3NC(=O)[C@@]12C,9.49%
19,Cn1cnc(S(=O)(=O)N2CCN(c3cccc(Cl)c3)CC2)c1,12.8%
20,C=CCn1c(CNC(=O)c2ccccc2F)nnc1SCc1nc2ccccc2c(=O)[nH]1,17.1%
21,O=C(CN1CCCN(S(=O)(=O)c2ccc(F)cc2)CC1)Nc1cccc(F)c1,-2.54%
22,COc1cc(-c2nnc(CSc3nnc(N)s3)o2)cc(OC)c1OC,7.02%

row,Compound,"hERG current change (%, negative = inhibition) at 1uM"
1,Cc1nn(Cc2ccc(F)cc2)c(C)c1NC(=O)c1noc2c1CCc1ccccc1-2,-1.28%
2,COc1ccc(C)c(-n2c(=O)n(Cc3ccccc3)c(=O)c3[nH]cnc32)c1,10.5%
3,Oc1ccccc1C1=Nc2ccccc2N=C(c2cccs2)C1,21.3%
4,COc1cc(C(=O)NCCOc2cccc3cccnc23)cc(OC)c1OC,4.83%
5,Cc1ccc(Oc2ccc(-c3nc(N)nc(N)n3)cc2)cc1,17.1%
6,O=C(NC1CCCC1)C(c1ccncc1)N(C(=O)c1ccco1)c1ccc(Cl)cc1 (stereo not shown),11.6%
7,CCC(=O)Nc1ccc(C(=O)CSc2nnc(CNc3ccc(Cl)cc3)o2)cc1OC,9.73%
8,O=C(CN1CCCCC1)Nc1cc(S(=O)(=O)N2CCOCC2)ccc1N1CCCC1,6.07%
9,COc1ccc(/C=N/NC(=O)c2cccnc2)cc1COc1ccc([N+](=O)[O-])cc1,8.43%
10,Cc1cccc(C)c1NC(=O)CSc1nnc(-c2ccccc2)n1Cc1ccc2c(c1)OCO2,3.17%
11,CCOC(=O)c1cnc(-c2ccccc2)[nH]c1=O,8.89%
12,CC(Sc1nnc(C(C)N(C)C)n1-c1ccc(Cl)cc1)C(=O)Nc1ccc2c(c1)OCO2 (stereo not shown),11.6%
13,CC1CC(C)CN(C(=O)COC(=O)c2cccc([N+](=O)[O-])c2)C1 (stereo not shown),10.1%
14,COc1ccc(NC(=O)c2sc3ncn(CC(=O)N4CCN(c5ccccn5)CC4)c(=O)c3c2C)c(OC)c1,14.9%
15,CC(Nc1c([N+](=O)[O-])c(=O)oc2ccccc12)C(Cl)c1ccccc1 (stereo not shown),7.05%
16,N#CCCN(C(=O)CCl)c1cccc(Cl)c1,9.88%
17,Cc1csc(NC(=O)CSc2nccn2C)n1,17.6%
18,O=C(NCc1ccco1)c1ccccc1NS(=O)(=O)c1cccs1,9.76%
19,COc1ccc(NC(=O)/C(Cl)=C(/Cl)S(=O)Cc2ccc(C)cc2)cn1 (stereo not shown),6.6%
20,Oc1ccc(Oc2ccc(Oc3ccc(O)cc3)cc2)cc1,11%
21,O=C(CSc1nnc(CNC(=O)c2ccco2)o1)Nc1ccccc1C(F)(F)F,23.1%
